± gives the standard deviation of the averaged measurements. Some of the results follow.
Each sequence was assayed on PfAP2-EXP AP2 domain (GST-tagged) (assay: gcPBM binding intensity (ln(normalized median fluorescence intensity)); higher = stronger DNA binding).
Procedure, shortened: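 Plasmodium falciparum DNA-binding domains carrying a GST tag were expressed in E. coli and applied for 1 h, at about 25 μg on average, to an Agilent 4 × 180k array. The array held primer-extended double-stranded 36-bp intergenic genomic probes together with negative controls, and binding took place in 1× PBS with 1% milk, 0.2 mg/ml BSA, 0.5% salmon testes DNA and 0.03% Triton X-100. An Alexa488 anti-GST antibody detected bound protein, and the array was scanned at 488 nm. Binding intensity is taken as the highest Masliner-normalised natural-log median intensity across replicate spots of either probe orientation.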
With TTATAAATTTAAAAAGTGCATAATAATAACAAAAAG the “gcPBM binding intensity (ln)” value was 8.89 ± 0.23.
In the case of “TATGTATATTTAAATGCATGTGATTATTTTTGACTT [TGCATGCA_site568]”, the “gcPBM binding intensity (ln)” value is reported as 8.47 ± 0.42.
For “ATTATGGATACATAAACACACATATATATAAAAAAA [CACACA_site4303]”, the “gcPBM binding intensity (ln)” value was 8.74 ± 0.45.
For “ACATGATAAATAGTCACACATAAATATAATATATAT [CACACA_site5207]”, the “gcPBM binding intensity (ln)” value was 8.61 ± 0.39.
“AATTATTCATAAAATGCATGTACATGGTTTAATATT [TGCATGCA_site87]” was tested, and the “gcPBM binding intensity (ln)” value was 8.84 ± 0.25.
For “ATACATGTTTTATGTGCACACAAAGTTGTTATGAGG [CACACA_site4032]”, the “gcPBM binding intensity (ln)” value was 9.1 ± 0.3.
“TCGTAAACTTTATGCACACACATATACATATTTCAT [CACACA_site739]” was tested, and the “gcPBM binding intensity (ln)” value was 8.71 ± 0.28.
For “ATAATACACAAGCACACACACACACGGATATTTATA [CACACA_site6714]”, the “gcPBM binding intensity (ln)” value was 8.79 ± 0.38.
“ATAATTATATTTTATTCACACATCGTTATATAGTAA [CACACA_site4743]” was tested, and the “gcPBM binding intensity (ln)” value was 8.54 ± 0.42.
For “TATAAAATATATATCTGTACGTATTTTATTTTTTAT [XGTACX_site6257]”, the “gcPBM binding intensity (ln)” value was 8.42 ± 0.37.
With “TATAAGCAAAGACACACACACATATAAATATAAATA [CACACA_site7740]” the “gcPBM binding intensity (ln)” value was 8.43 ± 0.38.
In the case of “AATACAATATAAAGGTGTACATATATATATATATAT [XGTACX_site68]”, the “gcPBM binding intensity (ln)” value is reported as 10.1 ± 0.48.
With “AAAAAAAAAAAAAAAACACACACAACACCCATACCT [CACACA_site9208]” the “gcPBM binding intensity (ln)” value was 8.92 ± 0.2.
In the case of “ATGTAGATAGATAGGGTGCTAAAAATAAGATTTATA [GTGCAC_site9602]”, the “gcPBM binding intensity (ln)” value is reported as 8.66 ± 0.18.
TATATATATATATGAGTGCATATGTGTAATATAAAA was tested, and the “gcPBM binding intensity (ln)” value was 10.1 ± 0.42.
In the case of “TACAAAATATTTTACACACACATATAAATACCTATA [CACACA_site7272]”, the “gcPBM binding intensity (ln)” value is reported as 8.54 ± 0.33.
“TTATGTTCTTAATGCACACTTATAAGTATCTTATAA [CACACA_site1394]” was tested, and the “gcPBM binding intensity (ln)” value was 9.04 ± 0.2.
In the case of “TATATAATTATTTGATGTACACTACAATGTATTTGT [XGTACX_site7991]”, the “gcPBM binding intensity (ln)” value is reported as 8.76 ± 0.19.
With “AGAAAAATTCTAAGAACATGCAAAAAAATAAAAAAA [TGCATGCA_site293]” the “gcPBM binding intensity (ln)” value was 8.88 ± 0.5.
In the case of “TTAACATTTTAAAAATGTACATTTATATACATAAAT [XGTACX_site922]”, the “gcPBM binding intensity (ln)” value is reported as 8.44 ± 0.4.
In the case of “AAAAAATAAATAAATATACACACCATATATATATTT [CACACA_site2854]”, the “gcPBM binding intensity (ln)” value is reported as 8.29 ± 0.35.
For “TCTAATGTAATGCATACACACAACTATCCATCAAAA [CACACA_site534]”, the “gcPBM binding intensity (ln)” value was 8.44 ± 0.4.
“AAAAAAAAAAAAAAAAGTACAAAAAAAAAAAAAAAA [XGTACX_site4549]” was tested, and the “gcPBM binding intensity (ln)” value was 8.26 ± 0.057.
With “TTTTTTTTTTTAAATAGTACACATATATATATATAT [XGTACX_site6983]” the “gcPBM binding intensity (ln)” value was 10.1 ± 0.37.
For “TATACCTATAGACACACACACATAAATAGATATATA [CACACA_site6748]”, the “gcPBM binding intensity (ln)” value was 8.83 ± 0.51.
In the case of “TACACGCATAGACACACACACACACGCATATAAATA [CACACA_site6446]”, the “gcPBM binding intensity (ln)” value is reported as 8.77 ± 0.45.
“AGTTTACACCTTGTGAGTACATACATACATATATAT [XGTACX_site8793]” was tested, and the “gcPBM binding intensity (ln)” value was 8.63 ± 0.36.
For “TTTTATTTTTCTAGTAGTACTTCTTTTTATAATATA [XGTACX_site1181]”, the “gcPBM binding intensity (ln)” value was 8.82 ± 0.49.
In the case of “ACACAAAAATAAAAATGTACAAATTAAAAAAAATGA [XGTACX_site2083]”, the “gcPBM binding intensity (ln)” value is reported as 8.68 ± 0.45.
For “TAAAAGGAACAAAATTGTACTTAAAAGACAAAGTTA [XGTACX_site7661]”, the “gcPBM binding intensity (ln)” value was 8.27 ± 0.26.
In the case of “TTTTTTTTTTTTTTGTCACACACCTTCATAAGAAAA [CACACA_site1166]”, the “gcPBM binding intensity (ln)” value is reported as 8.43 ± 0.54.
With “CACACCATATAATATATATATATGTATATATTTATA [CACACA_negctrl_site397]” the “gcPBM binding intensity (ln)” value was 8.29 ± 0.28.
In the case of “ATCCTGAACAGAATATGTATAAACAGAAGGAAACAA [CACACA_negctrl_site1805]”, the “gcPBM binding intensity (ln)” value is reported as 8.98 ± 0.42.
In the case of “ATATATATTAATAGTTGTACTATTATAATATTACAA [XGTACX_site1213]”, the “gcPBM binding intensity (ln)” value is reported as 8.23 ± 0.25.
“TTTGTTCTATGGAGTTTAAAATGTAATATATATTAA [GTGCAC_negctrl_site151]” was tested, and the “gcPBM binding intensity (ln)” value was 8.45 ± 0.55.
For “TAATAATAGAGACACACACACATTTTTAATAATACA [CACACA_site6691]”, the “gcPBM binding intensity (ln)” value was 8.66 ± 0.42.
For “ATATATATATATATATATATATATATATTTATATAT [GTGCAC_negctrl_site180]”, the “gcPBM binding intensity (ln)” value was 10.1 ± 0.85.
For “CTTTGTAGTTGGTCCACACACATATATGGAAGAATA [CACACA_site1280]”, the “gcPBM binding intensity (ln)” value was 8.88 ± 0.52.
For “AGTACATTATAGAATACACACCTATATATATATATA [CACACA_site4447]”, the “gcPBM binding intensity (ln)” value was 10.1 ± 0.23.
With “AATTATTAAATATGTACACACGTACATTTTATAAAT [CACACA_site5341]” the “gcPBM binding intensity (ln)” value was 8.27 ± 0.18.
For “TAATACATACACACATGTACATACAGAAATAAATAA [XGTACX_site3245]”, the “gcPBM binding intensity (ln)” value was 8.72 ± 0.46.
“TATTTTGTTCTTTCCACACACAAATACATATATTGT [CACACA_site4071]” was tested, and the “gcPBM binding intensity (ln)” value was 8.91 ± 0.35.
“AATATAAAAATGTTTACACACACACGGAAATATATT [CACACA_site7226]” was tested, and the “gcPBM binding intensity (ln)” value was 8.94 ± 0.47.
“ATATATATATGTGGATGTACATATATCTCTTATTAT [XGTACX_site1748]” was tested, and the “gcPBM binding intensity (ln)” value was 9.69 ± 0.11.
In the case of “TAAAATTAATAAAATATTTTCACTTAATATATATAA [CACACA_negctrl_site1550]”, the “gcPBM binding intensity (ln)” value is reported as 8.28 ± 0.49.
